# In all, about 420,000 compounds went through this assay and about 50,000 (12%) were called active. Inconclusive means that the source gave no clear call. Such entries were picked first, then a sample of the others. The call rests on the fitted dose curve; in most records, active means well fitted inhibition curve with a large enough effect; inconclusive means small, poorly fitted or top-dose-only effect; inactive means flat fitted curve, though single readings scatter. No potency is given beside an inconclusive call; the fits are too rough.
# Test: qHTS for Inhibitors of human tyrosyl-DNA phosphodiesterase 1 (TDP1): qHTS in cells in presence of CPT; further: nearly all actives have a fitted effect of over 55% in size
# Conditions: chicken DT40 Tdp1-/-;hTDP1 cells + 20 nM CPT, ATP luminescence, 48 h; activity change, negative = growth inhibition: at 46.2 µM (top of the series)
# Outline: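 Chicken DT40 Tdp1-/- cells stably complemented with human TDP1 were seeded at 400 cells/well in medium containing 20 nM camptothecin, exposed to pin-transferred compounds, and grown at 37 °C for at least 48 hr. Viability was read as ATP luminescence.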
# On the % scale 0 is the no-effect control and ±100 the full control effect; potency means the concentration at half of the fitted maximal effect; tags describe the fitted curve by direction and shape.
Structure (SMILES),Potency,"activity change, negative = growth inhibition"
CCOc1ccc(NC(=O)CN2C(=O)COc3ccc(Cl)cc32)cc1,"inconclusive [inhibitor, partial curve]",
Cc1ccc2nc(SCC(=O)NCc3ccco3)c(C)cc2c1,"inconclusive [inhibitor, single point]",
COc1ccc(/C(O)=C2\C(=O)C(=O)N(CCN(C)C)C2c2cccc(OC)c2OC)cc1Cl (stereo unspecified),,inactive: 0.39%
CCN(CC)c1cc(C)c2cc(NC(=O)c3ccc(F)cc3Cl)ccc2n1,"inconclusive [inhibitor, single point]",
CCOC(=O)Cn1c(-c2cccnc2Cl)nc2ccccc21,,inactive: 0.835%
CC1CC(C)CN(C(=O)c2cc3c(s2)CCC3)C1 (stereo unspecified),"inconclusive [inhibitor, partial curve, poor fit]",
Cc1ccc(NCc2nnc(SCC(=O)c3ccccc3)o2)c(C)c1,"inconclusive [inhibitor, partial curve]",
CCOC(=O)c1cc(C)n(CC2CCC(C(=O)Nc3ccc(C(=O)OC)cc3)CC2)c1C (stereo unspecified),active: 23.1 µM,
CSc1ccccc1C(=O)OCC(=O)Nc1ccc(N2CCOCC2)cc1,"inconclusive [inhibitor, single point]",
CC(C)C1Cc2c(sc3ncnc(NN)c23)CO1 (stereo unspecified),active: 8.2 µM,
Cn1c(CCNC(=O)OC(C)(C)C)n[nH]c1=S,"inconclusive [inhibitor, partial curve]",
O=[N+]([O-])c1ccc(/C=N/NS(=O)(=O)c2ccc(Cl)cc2)o1,active: 9.2 µM,
CC(=O)c1c(C)[nH]c(C(=O)N2CCN(S(=O)(=O)c3ccc(F)c(F)c3)CC2)c1C,active: 0.231 µM,
COc1ccc(-n2nc3ccc(NS(C)(=O)=O)cc3n2)cc1Cl,,inactive: 2.12%
COC(=O)N/N=C(\C)c1ccc2ccccc2c1OC(F)F,"inconclusive [inhibitor, single point]",
COc1ccc(C2CC(=O)N(Cc3ccccc3)c3c2c(C)nn3-c2nc(C)cc(C)n2)c(OC)c1 (stereo unspecified),"inconclusive [inhibitor, single point]",
COC(=O)c1ccc(N2CCN(CC(=O)c3ccc(C)cc3)CC2)c([N+](=O)[O-])c1,"inconclusive [inhibitor, single point]",
Cc1ccccc1CNC(=O)Nc1ccc2c(c1)N(C)C(=O)c1ccccc1S2,active: 16.4 µM,

Structure (SMILES),Potency,"activity change, negative = growth inhibition"
C[C@H](c1ccccc1)N1C[C@H](COCc2ccccc2)Oc2cc(N3CCC[C@@H]3CO)ccc2S1(=O)=O,"inconclusive [inhibitor, single point]",
COc1ccc(OC)c2[nH]c(=O)c(CCNC(=O)c3ccc(S(=O)(=O)N4CCCCC4)cc3)cc12,"inconclusive [inhibitor, single point]",
CCOc1cc(C(=O)NCCN2C(=O)S/C(=C\c3cccnc3)C2=O)cc(OCC)c1OCC,"inconclusive [inhibitor, single point]",
O=C(Nc1nc(-c2ccc3ccccc3c2)cs1)C1CCN(S(=O)(=O)c2cccs2)CC1,"inconclusive [inhibitor, partial curve]",
COc1cc(C(C)=O)cc(OC)c1O,inactive,
CCc1ccc(-c2nc(CN3CCC(C(=O)NCc4ccccc4OC)CC3)c(C)o2)cc1,active: 18.4 µM,
CCC(=O)N1CCc2cc(Br)cc(S(=O)(=O)CCC(=O)NCCc3ccccc3)c21,inactive,
COc1ccccc1-c1coc2cc(OC(=O)N3CCOCC3)ccc2c1=O,,inactive: -17.8%
Cc1ccc(C(NC(=O)N2CCOCC2)C(Cl)Cl)cc1F (stereo unspecified),"inconclusive [inhibitor, single point]",
Cc1cc2c(c(C#N)c1C)NC=NC2C (stereo unspecified),"inconclusive [inhibitor, single point]",
CCOC(=O)c1c(-c2ccccc2)oc2ccc(N(C(C)=O)S(=O)(=O)c3ccc(C)cc3)cc12,active: 8.2 µM,
CCN(CC)S(=O)(=O)c1cc(NC(=O)CSc2n[nH]c(N)n2)ccc1C,,inactive: -0.171%
O=c1cc(CN2CCOCC2)c2ccc(O)c(O)c2o1,"inconclusive [inhibitor, single point]",
COc1ccc(CCN(Cc2cc3ccc(C)cc3[nH]c2=O)C(C)=O)cc1OC,"inconclusive [inhibitor, full curve, poor fit]",
Cc1cc(/C=N/n2cnnc2)c(C)n1-c1ccc(Cl)cc1Cl,"inconclusive [inhibitor, partial curve, poor fit]",
COC(=O)NCCc1cc(OC)c(OC)cc1S(=O)(=O)N1CC(=O)Nc2ccccc21,,inactive: 2.61%
O=C1OCCC1Sc1nnc(-c2cccnc2)n1-c1ccccc1F (stereo unspecified),,inactive: 1.96%
Cc1cc(C(=O)C(=O)N(C)C)c(C)n1-c1ccc(Cl)cc1,"inconclusive [inhibitor, partial curve]",

# Source: PubChem BioAssay AID686979 (National Center for Advancing Translational Sciences (NCATS), 2013)
